MIC of clinical N. gonorrhoeae isolates (2015-2017) by agar dilution on GC agar with 1% IsoVitaleX (ranges not stated); higher = less susceptible. No active / inactive call per row; the paper counts benzylpenicillin above 1 and ceftriaxone above 0.125 mg/L as resistant (EUCAST). The method is stated for benzylpenicillin and ceftriaxone and assumed for the other drugs. '<=' is inferred from pile-ups at the end values. Isolates are numbered anew.
How the values were obtained:
Assay in all cases: Agar dilution on enriched GC agar; resistance determinants by microarray.
ceftriaxone = compound: CO/N=C(\C(=O)N[C@@H]1C(=O)N2C(C(=O)O)=C(CSc3nc(=O)c(O)nn3C)CS[C@H]12)c1csc(N)n1 [ceftriaxone]
benzylpenicillin = compound: CC1(C)S[C@@H]2[C@H](NC(=O)Cc3ccccc3)C(=O)N2[C@H]1C(=O)O [benzylpenicillin]
tetracycline = compound: CN(C)[C@@H]1C(O)=C(C(N)=O)C(=O)[C@@]2(O)C(O)=C3C(=O)c4c(O)cccc4[C@@](C)(O)[C@H]3C[C@@H]12 [tetracycline]
spectinomycin = compound: CN[C@@H]1[C@H](O)[C@H](NC)[C@H]2O[C@@]3(O)C(=O)C[C@@H](C)O[C@H]3O[C@@H]2[C@H]1O [spectinomycin]
azithromycin = compound: CC[C@H]1OC(=O)[C@H](C)[C@@H](O[C@H]2C[C@@](C)(OC)[C@@H](O)[C@H](C)O2)[C@H](C)[C@@H](O[C@@H]2O[C@H](C)C[C@H](N(C)C)[C@H]2O)[C@](C)(O)C[C@@H](C)CN(C)[C@H](C)[C@@H](O)[C@]1(C)O [azithromycin]

Test System: Neisseria gonorrhoeae isolate 471 (blaTEM plasmid: no, gyrA: Phe91, Asn 95, mtrR promoter: wild type, parC: Arg 87, Glu91, penA: wild type, ponA: Pro421, porB: wild type, rpsJ: wild type, tetM plasmid: no)
- MIC (ceftriaxone): ≤ 0.002 µg/mL
- MIC (benzylpenicillin): 0.25 µg/mL
- MIC (tetracycline): 0.5 µg/mL
- MIC (spectinomycin): 32 µg/mL
- MIC (azithromycin): 0.06 µg/mL

Test System: Neisseria gonorrhoeae isolate 372 (blaTEM plasmid: no, gyrA: Phe91, Asn 95, mtrR promoter: wild type, parC: Arg 87, Glu91, penA: ins345Asp, ponA: Pro421, porB: Gly120, Gly121, rpsJ: Met57, tetM plasmid: no)
- MIC (ceftriaxone): ≤ 0.002 µg/mL
- MIC (benzylpenicillin): 1 µg/mL
- MIC (tetracycline): 0.5 µg/mL
- MIC (spectinomycin): 32 µg/mL
- MIC (azithromycin): 0.03 µg/mL

Test System: Neisseria gonorrhoeae isolate 373 (blaTEM plasmid: no, gyrA: wild type, mtrR promoter: wild type, parC: wild type, penA: wild type, ponA: wild type, porB: wild type, rpsJ: wild type, tetM plasmid: no)
- MIC (ceftriaxone): ≤ 0.002 µg/mL
- MIC (benzylpenicillin): 0.06 µg/mL
- MIC (tetracycline): 1 µg/mL
- MIC (spectinomycin): 16 µg/mL
- MIC (azithromycin): 0.25 µg/mL

Test System: Neisseria gonorrhoeae isolate 266 (blaTEM plasmid: no, gyrA: wild type, mtrR promoter: wild type, parC: wild type, penA: ins345Asp, ponA: wild type, porB: wild type, rpsJ: Met57, tetM plasmid: no)
- MIC (ceftriaxone): ≤ 0.002 µg/mL
- MIC (benzylpenicillin): 0.25 µg/mL
- MIC (tetracycline): 0.5 µg/mL
- MIC (spectinomycin): 4 µg/mL
- MIC (azithromycin): 0.015 µg/mL

Test System: Neisseria gonorrhoeae isolate 32 (blaTEM plasmid: no, gyrA: wild type, mtrR promoter: wild type, parC: wild type, penA: wild type, ponA: wild type, porB: wild type, rpsJ: wild type, tetM plasmid: no)
- MIC (ceftriaxone): ≤ 0.002 µg/mL
- MIC (benzylpenicillin): ≤ 0.015 µg/mL
- MIC (tetracycline): 0.12 µg/mL
- MIC (spectinomycin): 16 µg/mL
- MIC (azithromycin): 0.06 µg/mL

Test System: Neisseria gonorrhoeae isolate 481 (blaTEM plasmid: no, gyrA: Phe91, Gly95, mtrR promoter: wild type, parC: Arg87, Glu91, penA: ins345Asp, ponA: wild type, porB: wild type, rpsJ: Met57, tetM plasmid: no)
- MIC (ceftriaxone): 0.004 µg/mL
- MIC (benzylpenicillin): 0.25 µg/mL
- MIC (tetracycline): 1 µg/mL
- MIC (spectinomycin): 16 µg/mL
- MIC (azithromycin): 0.25 µg/mL

Test System: Neisseria gonorrhoeae isolate 47 (blaTEM plasmid: no, gyrA: wild type, mtrR promoter: wild type, parC: wild type, penA: wild type, ponA: wild type, porB: Asp120, Ala121, rpsJ: wild type, tetM plasmid: no)
- MIC (ceftriaxone): ≤ 0.002 µg/mL
- MIC (benzylpenicillin): ≤ 0.015 µg/mL
- MIC (tetracycline): 0.12 µg/mL
- MIC (spectinomycin): 16 µg/mL
- MIC (azithromycin): 0.12 µg/mL

Test System: Neisseria gonorrhoeae isolate 486 (blaTEM plasmid: no, gyrA: wild type, mtrR promoter: wild type, parC: wild type, penA: wild type, ponA: wild type, porB: wild type, rpsJ: wild type, tetM plasmid: no)
- MIC (ceftriaxone): ≤ 0.002 µg/mL
- MIC (benzylpenicillin): 0.03 µg/mL
- MIC (tetracycline): 0.25 µg/mL
- MIC (spectinomycin): 32 µg/mL
- MIC (azithromycin): 0.06 µg/mL

Test System: Neisseria gonorrhoeae isolate 500 (blaTEM plasmid: no, gyrA: Phe91, Asn95, mtrR promoter: -35delA, parC: Arg87, Glu91, penA: ins345Asp, ponA: Pro421, porB: Asn120, Asp121, rpsJ: Met57, tetM plasmid: no)
- MIC (ceftriaxone): 0.03 µg/mL
- MIC (benzylpenicillin): 2 µg/mL
- MIC (tetracycline): 2 µg/mL
- MIC (spectinomycin): 16 µg/mL
- MIC (azithromycin): 1 µg/mL

Test System: Neisseria gonorrhoeae isolate 236 (blaTEM plasmid: no, gyrA: wild type, mtrR promoter: wild type, parC: wild type, penA: wild type, ponA: wild type, porB: wild type, rpsJ: wild type, tetM plasmid: no)
- MIC (ceftriaxone): ≤ 0.002 µg/mL
- MIC (benzylpenicillin): ≤ 0.015 µg/mL
- MIC (tetracycline): 0.03 µg/mL
- MIC (spectinomycin): 8 µg/mL
- MIC (azithromycin): 0.002 µg/mL

Test System: Neisseria gonorrhoeae isolate 89 (blaTEM plasmid: no, gyrA: wild type, mtrR promoter: wild type, parC: wild type, penA: ins345Asp, ponA: wild type, porB: wild type, rpsJ: wild type, tetM plasmid: no)
- MIC (ceftriaxone): 0.008 µg/mL
- MIC (benzylpenicillin): 0.25 µg/mL
- MIC (tetracycline): 1 µg/mL
- MIC (spectinomycin): 8 µg/mL
- MIC (azithromycin): 0.06 µg/mL

Test System: Neisseria gonorrhoeae isolate 488 (blaTEM plasmid: no, gyrA: Phe91, Asn95, mtrR promoter: wild type, parC: Arg 87, Glu91, penA: ins345Asp, ponA: Pro421, porB: wild type, rpsJ: Met57, tetM plasmid: no)
- MIC (ceftriaxone): ≤ 0.002 µg/mL
- MIC (benzylpenicillin): 0.12 µg/mL
- MIC (tetracycline): 0.5 µg/mL
- MIC (spectinomycin): 32 µg/mL
- MIC (azithromycin): 0.06 µg/mL

Test System: Neisseria gonorrhoeae isolate 112 (blaTEM plasmid: no, gyrA: wild type, mtrR promoter: wild type, parC: wild type, penA: ins345Asp, ponA: wild type, porB: wild type, rpsJ: wild type, tetM plasmid: no)
- MIC (ceftriaxone): 0.008 µg/mL
- MIC (benzylpenicillin): 0.03 µg/mL
- MIC (tetracycline): 0.25 µg/mL
- MIC (spectinomycin): 32 µg/mL
- MIC (azithromycin): 0.06 µg/mL

Test System: Neisseria gonorrhoeae isolate 310 (blaTEM plasmid: no, gyrA: Thr91, Gly95, mtrR promoter: -35delA, parC: Arg87, Glu91, penA: ins345Asp, ponA: Pro421, porB: wild type, rpsJ: Met57, tetM plasmid: no)
- MIC (ceftriaxone): 0.015 µg/mL
- MIC (benzylpenicillin): 1 µg/mL
- MIC (tetracycline): 1 µg/mL
- MIC (spectinomycin): 32 µg/mL
- MIC (azithromycin): 0.5 µg/mL

Test System: Neisseria gonorrhoeae isolate 453 (blaTEM plasmid: no, gyrA: Thr91, Gly95, mtrR promoter: wild type, parC: wild type, penA: ins345Asp, ponA: wild type, porB: wild type, rpsJ: wild type, tetM plasmid: no)
- MIC (ceftriaxone): ≤ 0.002 µg/mL
- MIC (benzylpenicillin): 0.25 µg/mL
- MIC (tetracycline): 0.12 µg/mL
- MIC (spectinomycin): 32 µg/mL
- MIC (azithromycin): 0.06 µg/mL

Test System: Neisseria gonorrhoeae isolate 432 (blaTEM plasmid: no, gyrA: Thr91, Gly95, mtrR promoter: wild type, parC: wild type, penA: ins345Asp, ponA: wild type, porB: wild type, rpsJ: wild type, tetM plasmid: no)
- MIC (ceftriaxone): 0.004 µg/mL
- MIC (benzylpenicillin): 0.03 µg/mL
- MIC (tetracycline): 0.5 µg/mL
- MIC (spectinomycin): 4 µg/mL
- MIC (azithromycin): 0.12 µg/mL

Test System: Neisseria gonorrhoeae isolate 514 (blaTEM plasmid: no, gyrA: Phe91, Gly95, mtrR promoter: -35delA, parC: Arg87, Glu91, penA: ins345Asp, ponA: Pro421, porB: wild type, rpsJ: Met57, tetM plasmid: no)
- MIC (ceftriaxone): ≤ 0.002 µg/mL
- MIC (benzylpenicillin): 0.03 µg/mL
- MIC (tetracycline): 0.25 µg/mL
- MIC (spectinomycin): 16 µg/mL
- MIC (azithromycin): 0.06 µg/mL

Test System: Neisseria gonorrhoeae isolate 360 (blaTEM plasmid: no, gyrA: wild type, mtrR promoter: wild type, parC: wild type, penA: ins345Asp, ponA: wild type, porB: Lys120, Asn121, rpsJ: Met57, tetM plasmid: yes)
- MIC (ceftriaxone): ≤ 0.002 µg/mL
- MIC (benzylpenicillin): 0.06 µg/mL
- MIC (tetracycline): 4 µg/mL
- MIC (spectinomycin): 8 µg/mL
- MIC (azithromycin): 1 µg/mL

Test System: Neisseria gonorrhoeae isolate 120 (blaTEM plasmid: no, gyrA: Phe91, Asn95, mtrR promoter: -35delA, parC: Ser87, Gly91, penA: ins345Asp, ponA: Pro421, porB: wild type, rpsJ: Met57, tetM plasmid: no)
- MIC (ceftriaxone): ≤ 0.002 µg/mL
- MIC (benzylpenicillin): 0.03 µg/mL
- MIC (tetracycline): 0.12 µg/mL
- MIC (spectinomycin): 16 µg/mL
- MIC (azithromycin): 0.015 µg/mL

Test System: Neisseria gonorrhoeae isolate 85 (blaTEM plasmid: no, gyrA: Phe91, Asn95, mtrR promoter: -35delA, parC: Arg87, Glu91, penA: ins345Asp, ponA: wild type, porB: Gly120, Gly121, rpsJ: Met57, tetM plasmid: yes)
- MIC (ceftriaxone): 0.008 µg/mL
- MIC (benzylpenicillin): 0.25 µg/mL
- MIC (tetracycline): 16 µg/mL
- MIC (spectinomycin): 32 µg/mL
- MIC (azithromycin): 0.12 µg/mL
